Measured values from the supplement of paper PMC4967469.
By IC50 is meant the dose at which the fit gives 50% viability; a fit beyond the top or the lowest dose is shown as a bound at that dose. AUC is the area under the same curve over the 256-fold range up to the top dose, as a fraction; values near 1 show little effect. For part of these data: A top dose marked as inferred was derived from the fitted curves, not read from the paper.

Columns and labels:
Assay in all cases: Viability of human cancer cell lines after 72 h of drug (GDSC screen)
[1] = compound: O=C(NOCC1CC1)c1ccc(F)c(F)c1Nc1ccc(I)cc1Cl [CI-1040]; settings: top dose 10 µM; top dose inferred
Method: (§1)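 Human cancer cell lines in 384-well plates, medium with 10% serum, drug for 72 h over a 256-fold dose range (nine 2-fold or five 4-fold steps up to the top dose). Adherent lines were fixed and stained with the nucleic acid dye Syto60, suspension lines read with resazurin; signal relative to control wells, capped at 0 and 100%. One two-parameter sigmoid per drug and line, fitted in a mixed model over all curves with the slope shared within a line.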

[2] = compound: Cn1nnc2c(C(N)=O)ncn2c1=O [Temozolomide]; settings: top dose 30 µM
Method: as §1

[3] = compound: CN(C)C/C=C/C(=O)Nc1ccc(C(=O)Nc2cccc(Nc3nccc(-c4cccnc4)n3)c2)cc1 [ZG-10]; settings: top dose 10 µM; top dose inferred
Method: as §1

[4] = compound: Oc1ccc2ccccc2c1SSc1c(O)ccc2ccccc12 [IPA-3]; settings: top dose 32 µM; top dose inferred
Method: as §1

[5] = compound: CN1CCc2c(c3ccccc3n2Cc2ccc(C(=O)NO)cc2)C1 [Tubastatin A]; settings: top dose 20 µM
Method: as §1

[6] = compound: COc1cc2c(Oc3ccc(NC(=O)C4(C(=O)Nc5ccc(F)cc5)CC4)cc3F)ccnc2cc1OCCCN1CCOCC1 [XL-880]; settings: top dose 5.12 µM; top dose inferred
Method: as §1

Cell Line | AUC [1] | IC50 [1] [µM] | AUC [2] | IC50 [2] [µM] | AUC [3] | IC50 [3] [µM] | AUC [4] | IC50 [4] [µM] | AUC [5] | IC50 [5] [µM] | AUC [6] | IC50 [6] [µM]
HGC-27 (stomach, adherent) | 0.963 | > 10 | 0.98 | > 30 | 0.565 | 0.913 | 0.656 | 5.04 | 0.98 | > 20 | 0.498 | 0.316
KMH-2 (thyroid, adherent) | 0.498 | 0.618 | 0.959 | > 30 | 0.806 | 4.42 | 0.81 | 14.6 | 0.99 | > 20 | 0.97 | > 5.12
C32 (melanoma, adherent) | 0.373 | 0.273 | 0.966 | > 30 | 0.596 | 1.17 | 0.946 | > 32 | 0.985 | > 20 | 0.773 | 2.12
DBTRG-05MG (glioma, adherent) | 0.744 | 3.58 | 0.976 | > 30 | 0.792 | 5.43 | 0.85 | 30.8 | 0.973 | > 20 | 0.66 | 0.964
RERF-LC-MS (lung adenocarcinoma, adherent) | 0.817 | 5.78 | 0.984 | > 30 | 0.922 | > 10 | 0.879 | > 32 | 0.987 | > 20 | 0.501 | 0.322
BICR10 (head and neck, adherent) | 0.908 | > 10 | 0.969 | > 30 | 0.883 | > 10 | 0.902 | > 32 | 0.985 | > 20 | 0.77 | 2.25
22RV1 (prostate, adherent) | 0.948 | > 10 | 0.979 | > 30 | 0.842 | 9.68 | 0.869 | > 32 | 0.916 | > 20 | 0.689 | 1.24
MES-SA (uterus, adherent) | 0.979 | > 10 | 0.99 | > 30 | 0.617 | 1.25 | 0.831 | 16.3 | 0.991 | > 20 | 0.992 | > 5.12
HCC-15 (lung squamous cell carcinoma, adherent) | 0.448 | 0.434 | 0.97 | > 30 | 0.804 | 6.77 | 0.979 | > 32 | 0.97 | > 20 | 0.767 | 2.45
LS-180 (large intestine, adherent) | 0.819 | 6.79 | 0.982 | > 30 | 0.901 | > 10 | 0.982 | > 32 | 0.974 | > 20 | 0.875 | > 5.12
OVCAR-8 (ovary, adherent) | 0.89 | 9.42 | 0.988 | > 30 | 0.731 | 2.6 | 0.99 | > 32 | 0.804 | 8.77 | 0.605 | 0.6
BHT-101 (thyroid, adherent) | 0.395 | 0.319 | 0.906 | > 30 | 0.808 | 5.39 | 0.919 | > 32 | 0.932 | > 20 | 0.585 | 0.55
NCI-H650 (lung adenocarcinoma, adherent) | 0.932 | > 10 | 0.985 | > 30 | 0.81 | 5.91 | 0.796 | 16.7 | 0.964 | > 20 | 0.761 | 2
CAL-78 (chondrosarcoma, adherent) | 0.977 | > 10 | 0.985 | > 30 | 0.662 | 1.89 | 0.974 | > 32 | 0.975 | > 20 | 0.597 | 0.615
OV-90 (ovary, adherent) | 0.457 | 0.463 | 0.96 | > 30 | 0.828 | 8.71 | 0.982 | > 32 | 0.976 | > 20 | 0.767 | 2.43
KYSE-50 (oesophagus, adherent) | 0.954 | > 10 | 0.989 | > 30 | 0.869 | 7.9 | 0.748 | 9.54 | 0.99 | > 20 | 0.543 | 0.415
CAL-33 (head and neck, adherent) | 0.558 | 0.898 | 0.94 | > 30 | 0.796 | 4.69 | 0.981 | > 32 | 0.986 | > 20 | 0.653 | 0.85
TMK-1 (stomach, adherent) | 0.652 | 1.7 | 0.949 | > 30 | 0.77 | 4.02 | 0.954 | > 32 | 0.978 | > 20 | 0.803 | 2.71
